The supplement of paper PMC3334620
The full ranking holds about 33,000 sequences; the median of “E-score (-0.5 to 0.5)” is about -0.04, and the highest 2% start at about 0.36. The list shows a part of the results.

What follows are sequences tested against T1, Hmlalpha2 (UniProt P0CY09) (assay: PBM E-score (8-mer binding enrichment) (E-score (-0.5 to 0.5)); higher = stronger / more preferred TF binding; most listed sequences are background and not binding sites). Settings: protein concentration: 200 nM; construct: GST-full length.
T1 sequence: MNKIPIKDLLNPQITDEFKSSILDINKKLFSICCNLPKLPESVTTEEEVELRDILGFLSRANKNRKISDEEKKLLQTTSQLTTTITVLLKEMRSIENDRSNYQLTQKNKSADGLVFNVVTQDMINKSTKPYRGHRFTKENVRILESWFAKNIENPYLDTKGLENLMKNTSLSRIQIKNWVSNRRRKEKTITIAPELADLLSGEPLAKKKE
In short: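 Using PURExpress in vitro transcription/translation, GST-tagged yeast transcription factors were made in full-length or DNA-binding-domain form. These were applied at about 100-200 nM to double-stranded universal all-10-mer Agilent arrays, and bound protein was detected with fluorescent anti-GST. Scans were normalised with masliner before the Universal PBM Analysis Suite assigned E-scores to ungapped eight-base words pooled with their reverse complements.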

How did the “PBM E-score” value turn out when GTTACTCA was run?
The value was 0.214.

With CCGACGGC as the sequence, how does the “PBM E-score” value read?
The value was 0.00516.

CGGGATGC was tested. Which “PBM E-score” value did it give?
The value was -0.249.

Which “PBM E-score” value does the source give for CGTGATGC here?
The value was -0.176.

GCGCATTA was tested. Which “PBM E-score” value did it give?
The value was 0.12.

Which “PBM E-score” value does the source give for AGATCTTA here?
The value was -0.026.

CTTTGCGC was tested. Which “PBM E-score” value did it give?
The value was 0.0385.

How did the “PBM E-score” value turn out when ATCAAGCG was run?
The value was -0.128.

Which “PBM E-score” value does the source give for CATTTCGC here?
The value was -0.0431.

AAAATGAA was tested. Which “PBM E-score” value did it give?
The value was 0.131.

CGACGGAC was tested. Which “PBM E-score” value did it give?
The value was -0.102.

With GATGTGTA as the sequence, how does the “PBM E-score” value read?
The value was 0.38.

Which “PBM E-score” value does the source give for CCATTGGA here?
The value was -0.145.

For ACATGCGT, which “PBM E-score” value is on record?
The value was 0.399.

Which “PBM E-score” value does the source give for ACAATGTG here?
Its value is 0.198.

For GTTTGAAA, which “PBM E-score” value is on record?
Its value is 0.0268.

For CGCTTACC, which “PBM E-score” value is on record?
Its value is 0.0166.

How did the “PBM E-score” value turn out when GCCACATA was run?
The value was 0.015.

How did the “PBM E-score” value turn out when AAATGCGG was run?
Its value is -0.197.

Which “PBM E-score” value does the source give for CACCACCA here?
Its value is -0.188.

For CCTTAACG, which “PBM E-score” value is on record?
Its value is 0.125.

For CGAGGAAG, which “PBM E-score” value is on record?
The value was -0.216.

ACCACGTA was tested. Which “PBM E-score” value did it give?
The value was 0.254.

GAAGGATC was tested. Which “PBM E-score” value did it give?
Its value is -0.265.

Which “PBM E-score” value does the source give for AGTGCGTA here?
The value was 0.202.

Which “PBM E-score” value does the source give for GACAGTGC here?
The value was -0.0346.

How did the “PBM E-score” value turn out when ACTTCTCA was run?
Its value is -0.0689.

CAATACCG was tested. Which “PBM E-score” value did it give?
The value was -0.163.

With CGTGAGCA as the sequence, how does the “PBM E-score” value read?
Its value is -0.169.

How did the “PBM E-score” value turn out when GTTTGGAA was run?
The value was 0.0349.

CGCTTCCA was tested. Which “PBM E-score” value did it give?
Its value is -0.0766.

ATTTTACC was tested. Which “PBM E-score” value did it give?
Its value is 0.188.

How did the “PBM E-score” value turn out when CGCGACAC was run?
The value was 0.0521.

With GGACAGAC as the sequence, how does the “PBM E-score” value read?
The value was -0.112.

ATAGGCGG was tested. Which “PBM E-score” value did it give?
The value was 0.0365.

With CCTTTCAG as the sequence, how does the “PBM E-score” value read?
Its value is -0.171.

Which “PBM E-score” value does the source give for CAAGTTAC here?
The value was 0.0968.

GGAGCGCA was tested. Which “PBM E-score” value did it give?
The value was -0.338.

For CCTTATGA, which “PBM E-score” value is on record?
Its value is -0.217.

With TCAGACCA as the sequence, how does the “PBM E-score” value read?
Its value is -0.122.

GAACTAAA was tested. Which “PBM E-score” value did it give?
Its value is 0.128.

AGCTTGAA was tested. Which “PBM E-score” value did it give?
Its value is -0.0694.

With ATCATCTG as the sequence, how does the “PBM E-score” value read?
Its value is -0.0383.

For ACCATTTG, which “PBM E-score” value is on record?
Its value is 0.139.

For AAGATTTC, which “PBM E-score” value is on record?
The value was 0.168.

AACTATAT was tested. Which “PBM E-score” value did it give?
Its value is 0.199.

AGTAGCTG was tested. Which “PBM E-score” value did it give?
The value was -0.0456.

CGTGCTAG was tested. Which “PBM E-score” value did it give?
The value was 0.124.

Which “PBM E-score” value does the source give for GAGGCGTA here?
The value was 0.0657.

With CAGTCCCG as the sequence, how does the “PBM E-score” value read?
The value was -0.196.

CGTGTCAA was tested. Which “PBM E-score” value did it give?
Its value is 0.438.

With GCGATTAA as the sequence, how does the “PBM E-score” value read?
Its value is 0.0172.

How did the “PBM E-score” value turn out when ACGTGTGA was run?
The value was 0.229.

With AACTCTTC as the sequence, how does the “PBM E-score” value read?
The value was -0.0967.

Which “PBM E-score” value does the source give for TAAACGTA here?
The value was 0.29.

Which “PBM E-score” value does the source give for ATCGCGTA here?
The value was 0.368.

How did the “PBM E-score” value turn out when ACTGTTCG was run?
The value was 0.0673.

Which “PBM E-score” value does the source give for ATAACGCC here?
Its value is 0.134.

For AACCGGTG, which “PBM E-score” value is on record?
Its value is -0.172.

With CTATCCCA as the sequence, how does the “PBM E-score” value read?
Its value is -0.145.

Which “PBM E-score” value does the source give for ACCTATGG here?
Its value is -0.114.

How did the “PBM E-score” value turn out when GAGAAACC was run?
Its value is -0.0736.

For CCTCCTTA, which “PBM E-score” value is on record?
The value was -0.138.

Which “PBM E-score” value does the source give for AGTAATTA here?
The value was 0.315.

With AGACGAGG as the sequence, how does the “PBM E-score” value read?
The value was -0.331.

Which “PBM E-score” value does the source give for CGGGAATC here?
Its value is -0.305.

Which “PBM E-score” value does the source give for GCTGGGCC here?
The value was -0.404.

How did the “PBM E-score” value turn out when TATTCACA was run?
The value was 0.297.

Which “PBM E-score” value does the source give for CACTCGCG here?
The value was -0.0838.

With TAGTTTGA as the sequence, how does the “PBM E-score” value read?
Its value is 0.0225.

How did the “PBM E-score” value turn out when CTCGTACA was run?
Its value is 0.167.

How did the “PBM E-score” value turn out when CTGGTTAA was run?
Its value is 0.128.

Which “PBM E-score” value does the source give for CCTCTTAG here?
The value was -0.0666.

Which “PBM E-score” value does the source give for ATGTGGAA here?
The value was 0.173.

How did the “PBM E-score” value turn out when GGAATAAC was run?
The value was 0.0659.

CGGCCCAC was tested. Which “PBM E-score” value did it give?
The value was -0.155.

GGCATCGA was tested. Which “PBM E-score” value did it give?
The value was -0.24.

For AATACACA, which “PBM E-score” value is on record?
Its value is 0.467.

With CCCTCCGC as the sequence, how does the “PBM E-score” value read?
The value was -0.307.

Which “PBM E-score” value does the source give for TAGCGCCA here?
Its value is -0.159.

For ACTTCAGA, which “PBM E-score” value is on record?
Its value is -0.103.

With CGGTCAAC as the sequence, how does the “PBM E-score” value read?
The value was 0.147.

Which “PBM E-score” value does the source give for GACAACCA here?
The value was 0.00963.

For CAACTGAG, which “PBM E-score” value is on record?
The value was 0.0947.

TAGGGATA was tested. Which “PBM E-score” value did it give?
Its value is -0.135.

How did the “PBM E-score” value turn out when GAAGCCGA was run?
Its value is -0.259.
